57 sequences from the supplement of paper PMC11417369 can be followed below.

± gives the standard deviation of the averaged measurements. This is one part of the list.

For the assay, the system named is PfAP2-EXP AP2 domain (GST-tagged). As to the kind of experiment: gcPBM binding intensity (ln(normalized median fluorescence intensity)); higher = stronger DNA binding. The procedure, abridged:
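Binding intensity values are the highest Masliner-normalised natural-log median intensity among replicate spots of either probe orientation. The binding step lasted 1 h in 1× PBS with 1% milk, 0.2 mg/ml BSA, 0.5% salmon testes DNA and 0.03% Triton X-100, using GST-tagged P. falciparum DNA-binding domains expressed in E. coli on an Agilent 4 × 180k array of primer-extended double-stranded 36-bp intergenic genomic probes plus negative controls. Alexa488 anti-GST antibody and a 488 nm scan detected bound protein.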
For “TGTCCTTATGGGCACACACACATATAAGAAATTTAA [CACACA_site3187]”, the “gcPBM binding intensity (ln)” value came out at 8.41 ± 0.53.

“TAAACATACATATACACACACACACCCACACCCACA [CACACA_site492]”: the “gcPBM binding intensity (ln)” value was 8.79 ± 0.65.

As for AAAAACAAACTGTGCATGCACCAAAAAAAAAAAAAA, the “gcPBM binding intensity (ln)” value is 9.38 ± 0.16.

Turning to “ATATTTATATATATGTGTACATATAGAAACATAAAA [XGTACX_site4355]”, the “gcPBM binding intensity (ln)” value was 8.47 ± 0.31.

In the case of “CTTCTTATTTTCTAATGTACGTACAAATCATTTATA [XGTACX_site2176]”, the “gcPBM binding intensity (ln)” value came to 9.14 ± 0.35.

Consider “TTTTTTTTTTTAATTTGTACGAATCTTTTTATTTTA [XGTACX_site4516]”, for which the “gcPBM binding intensity (ln)” value came to 8.54 ± 0.49.

As for “ATTTTTTTATAAAATTTTTATATATTATATAAATAT [GTGCAC_negctrl_site163]”, the “gcPBM binding intensity (ln)” value came out at 8.23 ± 0.47.

As for “TAAAAATAGTATACAACACACGAGGGAAAATAAAGT [CACACA_site3837]”, the “gcPBM binding intensity (ln)” value is 9.56 ± 0.49.

On to GCCAATAAAGATGTGGTGCATTATATATATATATAT, for which the “gcPBM binding intensity (ln)” value stood at 10.3 ± 0.23.

With “AAATGTATAATATTTTCACACACAAGAAAAAAGAAA [CACACA_site9195]”, the “gcPBM binding intensity (ln)” value is 8.61 ± 0.49.

“TATCGAGCACGGCGTGTGGAGTTACAAAGAGGAGAA [CACACA_negctrl_site40]”: the “gcPBM binding intensity (ln)” value was 9.05 ± 0.37.

Consider “ATAAACAATTAACAAACATGCAAATTTTAAATGTGT [TGCATGCA_site919]”, for which the “gcPBM binding intensity (ln)” value came to 8.75 ± 0.21.

Regarding “CGTATTTATATAATTACACACCATATTTTAATTATT [CACACA_site5960]”, the “gcPBM binding intensity (ln)” value came to 8.57 ± 0.38.

“ATTTATTTGTTTGTTTTTTTTACGATTTTTATTTTT [CACACA_negctrl_site1138]”: the “gcPBM binding intensity (ln)” value was 8.71 ± 0.5.

As for “ATCTATGATATATACACACACATGTATAAATAAATA [CACACA_site7012]”, the “gcPBM binding intensity (ln)” value stood at 8.37 ± 0.4.

Take “TAATTTTTTTTTCTTGTACACACTATTTTATAATTT [CACACA_site4078]”: the “gcPBM binding intensity (ln)” value came to 8.79 ± 0.44.

Turning to “AATAGTATTCACAAAGTTTTATATAATAAATATAAA [GTGCAC_negctrl_site154]”, the “gcPBM binding intensity (ln)” value turned out to be 8.1 ± 0.45.

For “CTTTCATATGTTTTAACACACACGCATATATTATAT [CACACA_site8615]”, the “gcPBM binding intensity (ln)” value was determined as 9.04 ± 0.4.

Regarding “TTTTTTTTTTTGATTTGTACACAAAAAAAATATATG [XGTACX_site4547]”, the “gcPBM binding intensity (ln)” value came to 8.39 ± 0.29.

With “TTTTTTTTTTGATGTTGTACATATATATTATATATA [XGTACX_site6377]”, the “gcPBM binding intensity (ln)” value is 8.55 ± 0.41.

As to “TTTTTTTTTTTTTTTTGTACATATTTTTAAACTATA [XGTACX_site2897]”, the “gcPBM binding intensity (ln)” value is 8.22 ± 0.45.

With “AGATATATGGACGACTCACACATTTAAATTCATTCA [CACACA_site6047]”, the “gcPBM binding intensity (ln)” value turned out to be 8.65 ± 0.4.

As to “TCGAACGTATCATGTGTACACACAAATTGTTTTTTT [CACACA_site8623]”, the “gcPBM binding intensity (ln)” value came out at 8.85 ± 0.3.

For GTATAAAAGTAACTAGTGCATTACATATGAATAAAA, the “gcPBM binding intensity (ln)” value came to 8.74 ± 0.51.

As for “CCTTGCCCCAGGAGTTCACACACATAATAGATTGTC [CACACA_site8138]”, the “gcPBM binding intensity (ln)” value came to 8.82 ± 0.64.

For “AGATATTTTTCTTAAGTACACACTAATTAGAAACTA [CACACA_site7897]”, the “gcPBM binding intensity (ln)” value came to 8.52 ± 0.23.

Take “TTTTTATTTTAAAAGAATAATTATCTAATATCTATA [CACACA_negctrl_site371]”: the “gcPBM binding intensity (ln)” value was found to be 7.96 ± 0.41.

“TTACCTCTTTGAAATATACACACTAAACATATCAAC [CACACA_site2455]”: the “gcPBM binding intensity (ln)” value was 8.6 ± 0.42.

Turning to “GACACCTGCATGAAAGTGCAAAATAGAAAAGGAACA [GTGCAC_site9593]”, the “gcPBM binding intensity (ln)” value worked out at 9.22 ± 0.38.

Turning to “AAATACCTTATATATACACACTATGTTTTTCTTTTT [CACACA_site4792]”, the “gcPBM binding intensity (ln)” value was 8.71 ± 0.36.

As for “AACACGCACAGACACACACACAAAAATGATTAAAAA [CACACA_site7195]”, the “gcPBM binding intensity (ln)” value amounted to 8.61 ± 0.32.

“AAGGAATAATAATAAATGTAAAGAAAAGCATACTGA [CACACA_negctrl_site36]”: the “gcPBM binding intensity (ln)” value was determined as 8.79 ± 0.45.

With “TTTATGAGGTTACTATGTACGCAAATTATGTAATAA [XGTACX_site325]”, the “gcPBM binding intensity (ln)” value is 8.63 ± 0.23.

On to “ATTTGTGTTATTCGAAGTACGGATCATTTGAAATAA [XGTACX_site2510]”, for which the “gcPBM binding intensity (ln)” value came out at 8.56 ± 0.31.

Consider “AAAAGAAGAAACAAAACACACACAGTCTTCTTTTCT [CACACA_site9015]”, for which the “gcPBM binding intensity (ln)” value stood at 8.93 ± 0.62.

As to “AGCAATTTGGGGTGTACACACACCTTATTTAAATTA [CACACA_site1157]”, the “gcPBM binding intensity (ln)” value was found to be 8.74 ± 0.38.

For “TCAAATTATTAAAATACACACATATTATATATATAT [CACACA_site2530]”, the “gcPBM binding intensity (ln)” value amounted to 9.46 ± 0.23.

Consider “TAATAAAACATATATACACACATTAGATATACATAT [CACACA_site6897]”, for which the “gcPBM binding intensity (ln)” value is 8.46 ± 0.4.

Regarding “TTCCCAACATGATATTGTACATTTAATTATAATTAA [XGTACX_site7029]”, the “gcPBM binding intensity (ln)” value came to 8.81 ± 0.38.

Turning to “TATAAATAAAGACACACACACACACCGTATAATTAC [CACACA_site7829]”, the “gcPBM binding intensity (ln)” value was found to be 8.65 ± 0.57.

Turning to “TATATCTCTTTATTCACACATACGTTTTAAAATAAT [CACACA_site5542]”, the “gcPBM binding intensity (ln)” value came to 8.8 ± 0.44.

Turning to “CCAGGAAAAATTTATTGTACATATATTTTTATGCTC [XGTACX_site7154]”, the “gcPBM binding intensity (ln)” value is 8.55 ± 0.47.

As to “TATATGTTTGAATATACACACAACATATATATATAT [CACACA_site4066]”, the “gcPBM binding intensity (ln)” value worked out at 10 ± 0.26.

“ATATTATTAATTTGTTGTACAGTTCTTTATTTATAG [XGTACX_site7932]”: the “gcPBM binding intensity (ln)” value came to 8.82 ± 0.45.

Take “TATATTAAAAAAAAATGTACACATATATATATATAT [XGTACX_site4524]”: the “gcPBM binding intensity (ln)” value came to 10.1 ± 0.43.

As to TATTTTTGGTTATGTGTGCACTATGAACAACAAAAT, the “gcPBM binding intensity (ln)” value worked out at 9.18 ± 0.14.

For “TATTTTTAACAGTGCACACATAACTTAATTATATGT [CACACA_site2194]”, the “gcPBM binding intensity (ln)” value was determined as 8.81 ± 0.18.

In the case of “GAAAGAAAATATTAAGTGCATATTTTAATGATACAA [GTGCAC_site9712]”, the “gcPBM binding intensity (ln)” value turned out to be 8.6 ± 0.22.

As to “ATAAAAATAAAAAAAACACACATACCTTATTTTTGT [CACACA_site5452]”, the “gcPBM binding intensity (ln)” value is 8.54 ± 0.57.

For the sequence “GTGCATAAATCATACACACACACATATATATATATA [CACACA_site2423]”, the “gcPBM binding intensity (ln)” value turned out to be 10.1 ± 0.18.

As for “AATCAAAATAAATTAACACACAATTTTAATATTGTT [CACACA_site10]”, the “gcPBM binding intensity (ln)” value is 8.18 ± 0.36.

In the case of “TATAAAAAATTATGTTGTACGTAATATAAAATTTGT [XGTACX_site7122]”, the “gcPBM binding intensity (ln)” value worked out at 8.57 ± 0.3.

Take “AAATATAAATGGTAATACACATACACACACACATAC [XGTACX_negctrl_site459]”: the “gcPBM binding intensity (ln)” value is 9.04 ± 0.41.

Consider “ATTTTCCATATATTTTGTACATATGTATATTTTCCC [XGTACX_site7795]”, for which the “gcPBM binding intensity (ln)” value was 9.01 ± 0.48.

As to “CATATATGTTATATTTAACACACATATAAGGTACAT [CACACA_site8105]”, the “gcPBM binding intensity (ln)” value was found to be 8.47 ± 0.38.

Turning to “TATATATTATATATATGTACATATTGTTGTGTATAT [XGTACX_site767]”, the “gcPBM binding intensity (ln)” value stood at 8.63 ± 0.29.

Consider “TTTATAATTTATATCACACATATATCTGTAATAAAT [CACACA_site5048]”, for which the “gcPBM binding intensity (ln)” value is 8.24 ± 0.44.
